Source: PubChem BioAssay (NCATS)
This is one part of the list. Further columns of the screen follow, without active or inactive calls. Compounds called inactive in the main read-out are mostly missing here. Words in brackets tell the shape of the fitted curve; partial curves, single points and poor fits give uncertain potencies.

Assay: Cell-based coincidence reporter assay to measure PMP22 gene transcription in S16 Pmp22-F2sN cells - Confirmatory screen (AID 1508646)
Conditions: S16 Schwann cells Pmp22-F2sN, dual luciferase, 24 h
In short: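 S16 Schwann cells carrying a bioluminescent reporter in the Pmp22 3' UTR (Pmp22-F2sN) were treated with compounds for 24 h at 37C, then lysed; FLuc and then NLuc luminescence were read sequentially with a dual-luciferase kit on a CCD imager.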

[1] = measured here: FLuc reporter channel
[2] = measured here: NLuc reporter channel
Tags give direction and shape of the fitted curve.

Compound	AC50 [1]	AC50 [2]
COc1cccc(NC(=O)N(Cc2c[nH]c3ccccc23)C2CCCCCC2)c1	43.2 µM [falling, single point]	34.3 µM [falling, single point]
CCCCCn1c(=N)n(CC(O)COc2cccc(C)c2)c2ccccc21 (configuration not stated)	15.3 µM [falling, full curve]	17.2 µM [falling, partial curve]
Cc1ccc(Cl)cc1NC(=O)c1oc2ccc(S(=O)(=O)N3CCC4(CC3)OCCO4)cc2c1C	21.7 µM [falling, partial curve, poor fit]	21.7 µM [falling, partial curve, poor fit]
COc1cc(-c2nc(Cn3nnc(C(=O)Nc4cc(C)cc(C)c4)c3C)c(C)o2)cc(OC)c1OC	17.2 µM [falling, partial curve, poor fit]	19.3 µM [falling, partial curve]
Cc1ccc(-n2nc3c(N4CCC(C(=O)NCCC(C)C)CC4)nnc(C)c3c2C)cc1	10.9 µM [falling, full curve]	21.7 µM [falling, partial curve]
COc1ccc(NC(=O)c2c(NCc3ccc(C)o3)sc3c2CCCCC3)c(OC)c1	27.3 µM [falling, partial curve]	24.3 µM [falling, partial curve]
